# Screen size: about 52,000 compounds; about 1,700 (3.3%) were called active. Cut-off read from the data, not from the text of the source: active = survival mostly below about 52% (no sharp cut-off); inactive = mostly above about 56%. This is one part of the list.
# Tested on: Wild type
# Experiment: S. aureus survival, RN4220 and DeltatarO strains – OD600, teichoic acid synthesis inhibitors, primary screen (AID 463173)
# Details: S. aureus RN4220 wild type/DeltatarO growth, OD600, 18 h, stronger effect = lower value, screened at 18.75 µg/mL (by protocol)
row,Compound,survival
1,CC(NC(=O)CCCC1=NS(=O)(=O)c2ccccc2N1)c1ccccc1 (stereo not given),inactive: 89%
2,Cc1ccc(NC(=O)C2CCN(c3nc4ccccc4nc3C(F)(F)F)CC2)cc1F,inactive: 64%
3,COc1ccc(C(=O)Nc2nnc(S(=O)(=O)N3CCCCCC3)s2)cc1OC,inactive: 81%
4,CCC(C)n1c(=N)c(C(=O)NCc2ccccc2)cc2c(=O)n3cc(C)ccc3nc21 (stereo not given),inactive: 80%
5,CCOC(=O)c1cc(-c2ccccc2)n(-c2cccc(C(=O)Nc3cccc(F)c3)c2)c1C,inactive: 131%
6,CCCN1C(=O)CC(C(=O)OC)=C1C,inactive: 100%
7,O=C(O)C1C2C=CC(C2)C1C(=O)NCCO (stereo not given),inactive: 103%
8,COc1ccc(C(=O)c2oc3ccccc3c2NC(=O)COc2ccccc2)cc1,inactive: 85%
9,Cc1ccc(CNC(=O)CCc2c(C)nc3c(c(C)nn3-c3ccccc3)c2C)cc1,inactive: 95%
10,CCc1cccc(C)c1NC(=O)CC1Oc2ccc(C)cc2NC1=O (stereo not given),inactive: 132%
11,COc1ccc(CCNC(=O)c2sc3nc4n(c(=O)c3c2C)CCCC4)cc1OC,inactive: 83%
12,O=C(COc1ccc(Cl)cc1)OCc1cc(=O)n2nc(-c3cccs3)sc2n1,active: -6%
13,CC(C)n1c(=N)c(C(=O)NCc2cccnc2)cc2c(=O)n3ccccc3nc21,inactive: 131%
14,COc1ccc(Cl)cc1NS(=O)(=O)c1cc(Br)cc2c1N(C(=O)C1CC1)CC2,inactive: 77%
15,Cc1cc(C)n(CC(=O)Nc2ccc(F)c(F)c2)c(=O)c1C#N,inactive: 73%
16,O=C(Cn1c(=O)n(Cc2ccco2)c(=O)c2ccc(C(=O)NC3CCCC3)cc21)Nc1ccc(F)cc1,inactive: 76%
17,COc1ccc(-n2nc(C(=O)NCCc3ccc(Cl)cc3)c3c4ccccc4n(C)c3c2=O)cc1Cl,inactive: 85%
18,Cc1cc(-c2ccc(C)c(S(=O)(=O)N3CCCC(C)C3)c2)on1 (stereo not given),inactive: 85%
19,O=C(Cn1nc2c(cc1=O)CCCC2)Nc1ccc(F)cc1F,inactive: 128%
20,COc1ccc(CCNC(=O)c2c(O)nc3cc(C)ccn3c2=O)cc1OC,inactive: 83%
21,N#C/C(=C\c1ccc(-c2ccccc2C(=O)O)o1)c1nc2ccccc2[nH]1,inactive: 84%
22,COc1ccc(C(=O)Nc2ccccc2C(=O)NC(C(=O)NCc2ccco2)C(C)C)cc1 (stereo not given),inactive: 108%
23,O=S(=O)(Nc1cccc(Cl)c1)c1ccc2[nH]c3c(c2c1)CCCCCC3,inactive: 129%

row,Compound,survival
1,CCc1ccc(CNC(=O)c2ccc(CSc3nc4ccncc4n3Cc3ccc(OC)cc3)cc2)cc1,inactive: 75%
2,COc1ccc(N2CCN(C(=O)Cc3coc4ccc(C)cc34)CC2)cc1,inactive: 107%
3,CCN(CC)C(=O)C1=C(C)Nc2nc3ccccc3n2C1c1ccc(Br)cc1 (stereo not given),inactive: 80%
4,CCc1noc(-c2ccc(NC(C)c3ccccc3)c([N+](=O)[O-])c2)n1 (stereo not given),inactive: 85%
5,CC(=O)c1cccc(NC(=O)CCS(=O)(=O)c2cc3c(cc2C)NC(=O)CO3)c1,inactive: 87%
6,CCOC(=O)c1c(NC(C)=O)c2c3c(sc2n1Cc1nc(-c2ccc(Cl)cc2)oc1C)CCCC3,inactive: 81%
7,COc1ccc(C)cc1NC(=O)C(=O)NCCc1sc(-c2ccc(Cl)cc2)nc1C,inactive: 85%
8,CC(C)Oc1cccc(NC(=O)C2CCN(S(=O)(=O)Cc3ccccc3)CC2)c1,inactive: 85%
9,Cc1ccccc1-c1nnc(CN2CCN(c3cc(Cl)ccc3C)CC2)o1,inactive: 86%
10,CCOc1ccccc1C1N=C(N)Nc2nc3ccccc3n21 (stereo not given),inactive: 67%
11,Cc1nc(N2CCCC2)c2c(C(=O)Nc3ccc(C)c(Cl)c3)c(C)oc2n1,inactive: 130%
12,CCOC(=O)c1c(S(=O)(=O)N2CCC(C(=O)N3CCN(c4cccc(C)c4C)CC3)CC2)c(C)n(C)c1C,inactive: 72%
13,CCn1cnc2c(cnn2-c2ccccc2)c1=O,inactive: 97%
14,CCC(CC)C(=O)Nc1cc(-c2cn3cccnc3n2)ccc1OC,inactive: 117%
15,CCOc1ccc(C(=O)Nc2c(C(=O)c3ccccc3)oc3ccccc23)cc1,inactive: 60%
16,O=C(CSc1nnc(COc2ccc(Cl)cc2)o1)Nc1ccccc1,inactive: 87%
17,COc1ccc(C(CC(=O)Nc2ccc(C)cn2)N2Cc3ccccc3C2=O)cc1OC (stereo not given),inactive: 70%
18,COC(=O)c1c(C)oc2ccc(N(C(=O)c3ccncc3)S(=O)(=O)c3cc(C)c(C)cc3C)cc12,inactive: 77%
19,CCOC(=O)N1CCC(NC(=O)c2ccc3c(c2)N(Cc2cccc(C)c2)C(=O)c2ccccc2S3(=O)=O)CC1,inactive: 144%
20,COC(=O)c1ccc(N=NN2CCCCC2)cc1,inactive: 115%
21,O=S(=O)(c1ccc(F)cc1)N1CCC(Oc2ccc(-n3cnnn3)cc2)CC1,inactive: 90%
22,CCC(=O)Nc1ccc2nc(C)n(Cc3ccccc3)c(=O)c2c1,inactive: 123%
23,COc1cccc(CNC(=O)c2nnn(CC(=O)Nc3cc(Cl)ccc3C)c2N)c1,inactive: 19%

row,Compound,survival
1,Cc1ccc(-c2ccc(=O)n(Cc3ccc(F)cc3)n2)cc1,inactive: 80%
2,COc1cccc(CNC(=O)Cn2c(=O)oc3cc(S(=O)(=O)N4CCCC4)ccc32)c1,inactive: 119%
3,CCC(=O)N1CCc2cc(Br)cc(S(=O)(=O)CCC(=O)Nc3cccc(CC)c3)c21,inactive: 104%
4,Cc1cccc(N2C(=O)C(CC(=O)Nc3cccc(F)c3)N(Cc3cccs3)C2=O)c1 (stereo not given),active: 0%
5,Cc1ccc(Nc2cc(C)nc3nc(Cc4ccc(Cl)cc4)nn23)cc1,inactive: 78%
6,CCOc1ccc(CCNC(=O)CCCc2cc(-c3ccc(OCC)cc3)on2)cc1,inactive: 83%
7,N#Cc1c(/N=C/c2ccco2)oc(-c2ccccc2)c1-c1ccccc1,inactive: 114%
8,CC(NC(=O)C1(c2cccs2)CCOCC1)c1ccccc1 (stereo not given),inactive: 71%
9,CCn1cc(C(=O)N2CCN(c3cc(Cl)ccc3C)CC2)c2cc(OC)c(OC)cc2c1=O,inactive: 86%
10,Cc1ccc(CN2CCSc3ccc(C(=O)Nc4ccc(Cl)cc4)cc32)cc1,inactive: 81%
11,CCCN(CCC)CCCNC(=O)c1cc2c(=O)oc3ccc(C)cc3c2s1,inactive: 91%
12,Cc1nc2cccnc2n1C1CCN(S(=O)(=O)c2ccc(Cl)cc2)CC1,inactive: 84%
13,CN(C)S(=O)(=O)n1cc(/C=C(\NC(=O)c2ccccc2F)C(=O)NCCCn2ccnc2)c2ccccc21,inactive: 105%
14,CC(=O)Nc1nnc(SCC(=O)N2CCCC2)s1,inactive: 99%
15,Cc1ccc2cc(CN(Cc3ccccc3)C(=O)C3CC3)c3nnnn3c2c1,inactive: 116%
16,Cc1ccccc1CN1CCC(CNc2ncnc3onc(-c4ccc(Cl)cc4)c23)CC1,inactive: 60%
17,Cc1ccc2nc(/C(C#N)=C/c3cccc(Br)c3)[nH]c2c1,active: -11%
18,O=C(Cc1csc2ccccc12)NCc1cccc(Br)c1,inactive: 91%
19,Cc1ccc(NC(=O)C2CCCN(c3ncnc4c3nc3n4CCCCC3)C2)cc1F (stereo not given),inactive: 73%
20,COc1ccc2[nH]c(=O)c(CN(Cc3cccs3)C(c3nnnn3C(C)(C)C)C(C)C)cc2c1 (stereo not given),inactive: 96%
21,O=C(O)CC(NS(=O)(=O)c1ccc(Cl)s1)c1ccccc1 (stereo not given),inactive: 71%
22,Cc1nc2cccnc2n1-c1cccc(C(=O)NCc2ccc(OC(C)C)cc2)c1,inactive: 68%
23,COc1cc(NS(=O)(=O)c2ccc(NC(=O)C(C)Oc3ccc(Cl)cc3Cl)cc2)nc(OC)n1 (stereo not given),inactive: 64%

row,Compound,survival
1,CCOc1ccc(NC(=O)c2c(NC(=O)c3ccco3)sc3c2CCC(C(C)(C)C)C3)cc1 (stereo not given),inactive: 80%
2,O=C(NCc1ccccc1Cl)C1CCN(S(=O)(=O)c2ccc3c(c2)CCCN3C(=O)C2CCC2)CC1,inactive: 80%
3,CCC12CN3CC(C)(CN(C1)C3c1ccc(O)cc1O)C2=O (stereo not given),inactive: 85%
4,CC(C)c1ccccc1NC(=O)CC(C)(C)C,inactive: 121%
5,Cc1cc(C)cc(Oc2coc3c(CN4CCN(C)CC4)c(O)ccc3c2=O)c1,inactive: 72%
6,COc1ccc(Nc2c(-c3ccc(Cl)cc3)nc3cnccn23)cc1OC,inactive: 75%
7,CCOc1ccc(NC(=O)c2sc3nc4c(cc3c2N)CCCCCC4)cc1,inactive: 81%
8,COc1cccc(C(=O)Nc2cc(-c3cn4cccnc4n3)ccc2C)c1OC,inactive: 89%
9,CC(C)NS(=O)(=O)c1cccs1,inactive: 106%
10,O=C(c1cccs1)N(Cc1cccnc1)c1nc2ccc(F)cc2s1,inactive: 85%
11,Cc1ccc(OCC(=O)Nc2ccccc2C(=O)OCc2cc(=O)n3nc(C4CC4)sc3n2)cc1,inactive: 71%
12,Cc1nc2ccccn2c(=O)c1NC(=O)c1c(F)cccc1F,inactive: 82%
13,CC1CCN(C(=O)c2c(NC(=O)c3ccccc3F)sc3c2CCC(C(C)(C)C)C3)CC1 (stereo not given),active: -2%
14,CCCN(CCC)CCCNC(=O)C1CCC(CNS(=O)(=O)c2cccc3nsnc23)CC1 (stereo not given),inactive: 91%
15,Cc1ccc(CN(Cc2ccco2)C(=O)COc2c(C)cc(C)cc2C)cc1,inactive: 87%
16,CCn1cc(S(=O)(=O)c2ccc(OC)cc2)c(=O)c2cc(F)c(N3CCC(C)CC3)cc21,inactive: 89%
17,CC(C)C(c1nnnn1C(C)(C)C)N(Cc1cc2cc3c(cc2[nH]c1=O)OCCO3)C1CCCCC1 (stereo not given),inactive: 101%
18,Oc1ccc(-c2nc3ccccn3c2Nc2ccc3c(c2)OCCO3)cc1,inactive: 63%
19,CCCCNS(=O)(=O)c1ccc2nc(-c3cccnc3)cc(C(=O)NCCC)c2c1,inactive: 66%
20,COCCCNC(=O)c1ccc2nc(Cc3ccc(OC)cc3)oc2c1,inactive: 68%
21,COCCNC(=O)CSc1c2c(nc3cc(Cl)ccc13)CCCC2,inactive: 71%

# — PubChem BioAssay AID463173 (ICCB-Longwood Screening Facility, Harvard Medical School, 2010)
